Experimental data from the RNAGym collection of RNA variant scans (doi:10.1093/nar/gkz1192).
The source gives no read counts; variants with many changes may rest on few reads.

B1: CPEB3 Ribozyme (parent)
chain: UAACAGGGGGCCACAGCAGAAGCGUUCACGUCGCAGCCCCUGUCAGAUUCUGGUGAAUCUGCGAAUUCUGCUGUAUAUCUC

Variants of: B1
Experiment: self-cleavage, relative activity (ratio to wild type); higher = more cleavage; in vitro, sequencing
In short: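 For each CPEB3 ribozyme variant, relative activity is its cleaved/total read fraction divided by the unmutated ribozyme's. Barcoded error-prone PCR libraries were transcribed by T7 RNA polymerase (5 hours, 37°C) and held in DNase I for 15 min before an EDTA stop, with cleavage occurring throughout. Template-switching reverse transcription and Illumina sequencing were used to read the RNAs. A 5-read minimum applied, and results are the mean of three batches.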

| Variant | self-cleavage |
| --- | --- |
| UAACAGGGGGCCACAGCAGAAGCGUUCACGUCGCAGCCCCUGUAAGAUUCUGGUGAAUCUGCGAACUCUGCUGCAUAUCUC [C44A U66C U74C] | 0.38 |
| UAACAGGGGGCCACAGCAGAAGCGUUCACGUCGCAGCCCCUGUCCGAUUCUGGUGAAUCUGCGAAUUCAGCUGUAUAUCCC [A45C U69A U80C] | 0.21 |
| UAACAGGGGGCCACAGCAGAAGCGUUCACGUCGCAGCCCCUGUGAGAUUCUGGCGAAUCUGCGAAUUCUGCUGUAUACCUC [C44G U54C U78C] | 0.33 |
| UAACAGGGGGCCACAGCAGAAGCGUUCACGUCGCAGCCCCUGUUAGAUUCAGGUUAAUCUGAGAAUUCUGCUGUAUAUCUC [C44U U51A G55U C62A] | 0.13 |
| UAACAGGGGGCCACAGCAGAAGCGUUCACGUCGCAGCCCCUGGCAGAUUCUGGUGAAUCUGCGAAUUCUGCAGUGUAUCUC [U43G U72A A75G] | 0.17 |
| UAACAGGGGGCCACAGCAGAAGCGUUCACGUCGCAGCCCCUGUCCGAUUCUGGUGAAUCUGCGAAUUCCGCUGUAUAUCAC [A45C U69C U80A] | 0.27 |
| UAACAGGGGGCCACAGCAGAAGCGUUCACGUCGCAGCCCCUGUCGGGUUCUGGUGAAUCUGCGGAUUCUGCUGUAUAUCUC [A45G A47G A64G] | 0.33 |
| UAACAGGGGGCCACAGCAGAAGCGUUCACGUCGCAGCCCCUGUCGGGUUCUGGUGAGUCUGCGAAUUCCGCUGUGUAUCUC [A45G A47G A57G U69C A75G] | 0.09 |
| UAACAGGGGGCCACAGCAGAAGCGUUCACGUCGCAGCCCCUGGCAGAUUCCGGUGAAUCUGCGAAUUCUGCUGCAUAUCUC [U43G U51C U74C] | 0.41 |
| UAACAGGGGGCCACAGCAGAAGCGUUCACGUCGCAGCCCCUGGUAGAUUCUGGAGAAUCAGCGAAUUCUGCUGUAUAUCUC [U43G C44U U54A U60A] | 0.13 |
| UAACAGGGGGCCACAGCAGAAGCGUUCACGUCGCAGCCCCUGUUAGAUUCUGGUGUAUCUGCGAUUUCUGCUGUAUACCUC [C44U A56U A65U U78C] | 0.18 |
| UAACAGGGGGCCACAGCAGAAGCGUUCACGUCGCAGCCCCUGUCCGAUUCUGGUGAAUCUGCGUAUUCUGCAGUAUAUCUC [A45C A64U U72A] | 0.11 |
| UAACAGGGGGCCACAGCAGAAGCGUUCACGUCGCAGCCCCUGUCCGAUUCUGGUGAAUCCGCGGAUUCUGCUGUAUAUCCC [A45C U60C A64G U80C] | 0.18 |
| UAACAGGGGGCCACAGCAGAAGCGUUCACGUCGCAGCCCCUGUAAGAUUCUGGUGAAUCUGCGAGUUCUGCAGUAUAUCUC [C44A A65G U72A] | 0.07 |
| UAACAGGGGGCCACAGCAGAAGCGUUCACGUCGCAGCCCCUGUCCGAUUCAGGUGAAUCUGCGAAUUCAGCUGUAUAUCUC [A45C U51A U69A] | 0.45 |
| UAACAGGGGGCCACAGCAGAAGCGUUCACGUCGCAGCCCCUGUUAGAUUCUGGUAAAUCUGCGAGUUCAGCUGUAUAUCUC [C44U G55A A65G U69A] | 0.07 |
| UAACAGGGGGCCACAGCAGAAGCGUUCACGUCGCAGCCCCUGUUAGAUCCUGGUGAAUCUGCGAAUUCUGCUGCAUAUCUC [C44U U49C U74C] | 0.16 |

| Variant | self-cleavage |
| --- | --- |
| UAACAGGGGGCCACAGCAGAAGCGUUCACGUCGCAGCCCCUGCCAGAUUCUGGUGAAUCUGCGAAUUCUGCCGUAUAACUC [U43C U72C U78A] | 0.73 |
| UAACAGGGGGCCACAGCAGAAGCGUUCACGUCGCAGCCCCUGGCAGAUCCUGGUGAAUCUGCGAAUUCUGCUGUAUAUCCC [U43G U49C U80C] | 0.45 |
| UAACAGGGGGCCACAGCAGAAGCGUUCACGUCGCAGCCCCUGUCCGAUUCUGGUGUAUCUGCGAAUUCUGCUGAAUAUCUC [A45C A56U U74A] | 0.06 |
| UAACAGGGGGCCACAGCAGAAGCGUUCACGUCGCAGCCCCUGUCCGACUCUGGUGAAUCUGCGAAUUCUGCUGUAUAUCCC [A45C U48C U80C] | 0.21 |
| UAACAGGGGGCCACAGCAGAAGCGUUCACGUCGCAGCCCCUGCCAGAUUCUGGUGAAUCUGCGAAUUCUGCAGUAUAUCCC [U43C U72A U80C] | 0.75 |
| UAACAGGGGGCCACAGCAGAAGCGUUCACGUCGCAGCCCCUGGCAGAUUCUGGUGAAUCUGCGAACUCCGCUGUAUAUCUC [U43G U66C U69C] | 0.19 |
| UAACAGGGGGCCACAGCAGAAGCGUUCACGUCGCAGCCCCUGGUAGAUUCUGGUGAAUCUGCGAUUCCUGCUGUAUAUCUC [U43G C44U A65U U67C] | 0.15 |
| UAACAGGGGGCCACAGCAGAAGCGUUCACGUCGCAGCCCCUGUUAGAUUCUGGUGAAUCUGCGAAUUCGGCCGUAUAACUC [C44U U69G U72C U78A] | 0.11 |
| UAACAGGGGGCCACAGCAGAAGCGUUCACGUCGCAGCCCCUGUUAGGUUCUGGUGAACCUGCGAAUUCUGCUGUAUAUCUC [C44U A47G U58C] | 0.28 |
| UAACAGGGGGCCACAGCAGAAGCGUUCACGUCGCAGCCCCUGUUAGAUUCUGUUGAAUCUGCGAAUUCUGCUGUAUACCUC [C44U G53U U78C] | 0.47 |
| UAACAGGGGGCCACAGCAGAAGCGUUCACGUCGCAGCCCCUGGCUGUUUCUGGUGAAUCUGCGAAUUCUGCUGUAUAUCUC [U43G A45U A47U] | 0.22 |
| UAACAGGGGGCCACAGCAGAAGCGUUCACGUCGCAGCCCCUGCCAGAUUCUGGUGAAUCUGCGAAUUCUGCUGCAUCUCUC [U43C U74C A77C] | 1.03 |
| UAACAGGGGGCCACAGCAGAAGCGUUCACGUCGCAGCCCCUGGCAGAUUCUGGUGAAUCUGCGAGACCUACUGUAUAUCCC [U43G A65G U66A U67C G70A U80C] | 0.26 |
| UAACAGGGGGCCACAGCAGAAGCGUUCACGUCGCAGCCCCUGUAAGAUUCUGGCGAAUCUGCGAAUUCUGCUGAAUAUCUC [C44A U54C U74A] | 0.72 |
| UAACAGGGGGCCACAGCAGAAGCGUUCACGUCGCAGCCCCUGUAGGAUUCUGGUGAACCUGCGAAUUCCGCUGUAUAACUC [C44A A45G U58C U69C U78A] | 0.14 |
| UAACAGGGGGCCACAGCAGAAGCGUUCACGUCGCAGCCCCUGUCGGGUUCUGGUGAAUCUGCGGAUUCUGCUGAAUAUCUC [A45G A47G A64G U74A] | 0.58 |
| UAACAGGGGGCCACAGCAGAAGCGUUCACGUCGCAGCCCCUGUCCGAUUCUGGUGAAUCUGCGAACCCUGCUGUAUAUCUC [A45C U66C U67C] | 0.39 |
